This passage reports binding signal results from paper PMC9911399, “Two distinct binding modes provide the RNA-binding protein RbFox with extraordinary sequence specificity”.

Numbering of substitutions follows the chain as printed; changes in the protein carry UniProt numbers. Some of the results follow.

The chains are these.
T1: RBFOX1 RRM (Homo sapiens, UniProt Q9NWB1 109-208)
T1 sequence: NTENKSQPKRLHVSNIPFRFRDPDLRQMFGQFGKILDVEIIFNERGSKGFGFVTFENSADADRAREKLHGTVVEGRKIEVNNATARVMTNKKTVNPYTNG

B1: CCGAAGC (DNA:RNA)
RNA: GGGAGACCGGAAUUCAGAUUGUCCCCGAAGCUUAAAUCCCGUCGUAGCCACCA
DNA 1: CAATCTGAATTCCGGTCTCCC
DNA 2: TGGTGGCTACGACGGGATT
B2: CGGUAUG (DNA:RNA)
RNA: B1 RNA with C26G, A28U, G30U, C31G
DNA 1: CAATCTGAATTCCGGTCTCCC
DNA 2: TGGTGGCTACGACGGGATT
B3: AUUUAGG (DNA:RNA)
RNA: B1 RNA with C25A, C26U, G27U, A28U, C31G
DNA 1: CAATCTGAATTCCGGTCTCCC
DNA 2: TGGTGGCTACGACGGGATT
B4: CAAGCGC (DNA:RNA)
RNA: B1 RNA with C26A, G27A, A28G, A29C
DNA 1: CAATCTGAATTCCGGTCTCCC
DNA 2: TGGTGGCTACGACGGGATT
B5: UCUGUGU (DNA:RNA)
RNA: B1 RNA with C25U, G27U, A28G, A29U, C31U
DNA 1: CAATCTGAATTCCGGTCTCCC
DNA 2: TGGTGGCTACGACGGGATT
B6: AUGGGAC (DNA:RNA)
RNA: B1 RNA with C25A, C26U, A28G, A29G, G30A
DNA 1: CAATCTGAATTCCGGTCTCCC
DNA 2: TGGTGGCTACGACGGGATT
B7: CUACUGU (DNA:RNA)
RNA: B1 RNA with C26U, G27A, A28C, A29U, C31U
DNA 1: CAATCTGAATTCCGGTCTCCC
DNA 2: TGGTGGCTACGACGGGATT
B8: ACGGAAC (DNA:RNA)
RNA: B1 RNA with C25A, A28G, G30A
DNA 1: CAATCTGAATTCCGGTCTCCC
DNA 2: TGGTGGCTACGACGGGATT
B9: UUCGCAC (DNA:RNA)
RNA: B1 RNA with C25U, C26U, G27C, A28G, A29C, G30A
DNA 1: CAATCTGAATTCCGGTCTCCC
DNA 2: TGGTGGCTACGACGGGATT
B10: UGCAUAA (DNA:RNA)
RNA: B1 RNA with C25U, C26G, G27C, A29U, G30A, C31A
DNA 1: CAATCTGAATTCCGGTCTCCC
DNA 2: TGGTGGCTACGACGGGATT
B11: UGCUGUC (DNA:RNA)
RNA: B1 RNA with C25U, C26G, G27C, A28U, A29G, G30U
DNA 1: CAATCTGAATTCCGGTCTCCC
DNA 2: TGGTGGCTACGACGGGATT
B12: AAAAGUA (DNA:RNA)
RNA: B1 RNA with C25A, C26A, G27A, A29G, G30U, C31A
DNA 1: CAATCTGAATTCCGGTCTCCC
DNA 2: TGGTGGCTACGACGGGATT
B13: UAGCGGC (DNA:RNA)
RNA: B1 RNA with C25U, C26A, A28C, A29G
DNA 1: CAATCTGAATTCCGGTCTCCC
DNA 2: TGGTGGCTACGACGGGATT
B14: GUUUUGA (DNA:RNA)
RNA: B1 RNA with C25G, C26U, G27U, A28U, A29U, C31A
DNA 1: CAATCTGAATTCCGGTCTCCC
DNA 2: TGGTGGCTACGACGGGATT
B15: GUUAAGC (DNA:RNA)
RNA: B1 RNA with C25G, C26U, G27U
DNA 1: CAATCTGAATTCCGGTCTCCC
DNA 2: TGGTGGCTACGACGGGATT
B16: UUAACUA (DNA:RNA)
RNA: B1 RNA with C25U, C26U, G27A, A29C, G30U, C31A
DNA 1: CAATCTGAATTCCGGTCTCCC
DNA 2: TGGTGGCTACGACGGGATT
B17: AGAGUCC (DNA:RNA)
RNA: B1 RNA with C25A, C26G, G27A, A28G, A29U, G30C
DNA 1: CAATCTGAATTCCGGTCTCCC
DNA 2: TGGTGGCTACGACGGGATT
B18: AGCGACU (DNA:RNA)
RNA: B1 RNA with C25A, C26G, G27C, A28G, G30C, C31U
DNA 1: CAATCTGAATTCCGGTCTCCC
DNA 2: TGGTGGCTACGACGGGATT
B19: AUCCUAC (DNA:RNA)
RNA: B1 RNA with C25A, C26U, G27C, A28C, A29U, G30A
DNA 1: CAATCTGAATTCCGGTCTCCC
DNA 2: TGGTGGCTACGACGGGATT
B20: GCGACAA (DNA:RNA)
RNA: B1 RNA with C25G, A29C, G30A, C31A
DNA 1: CAATCTGAATTCCGGTCTCCC
DNA 2: TGGTGGCTACGACGGGATT
B21: UUUUGCU (DNA:RNA)
RNA: GGGAGACCGGAAUUCAGAUUGUCCUUUUGCUUUAAAUCCCGUCGUAGCCACCA
DNA 1: CAATCTGAATTCCGGTCTCCC
DNA 2: TGGTGGCTACGACGGGATT
B22: UACGCGC (DNA:RNA)
RNA: B1 RNA with C25U, C26A, G27C, A28G, A29C
DNA 1: CAATCTGAATTCCGGTCTCCC
DNA 2: TGGTGGCTACGACGGGATT
B23: CGUGGCA (DNA:RNA)
RNA: B21 RNA with U25C, U26G, U28G, U31A
DNA 1: CAATCTGAATTCCGGTCTCCC
DNA 2: TGGTGGCTACGACGGGATT
B24: AAGUGGG (DNA:RNA)
RNA: B1 RNA with C25A, C26A, A28U, A29G, C31G
DNA 1: CAATCTGAATTCCGGTCTCCC
DNA 2: TGGTGGCTACGACGGGATT
B25: UAAACCU (DNA:RNA)
RNA: B21 RNA with U26A, U27A, U28A, G29C
DNA 1: CAATCTGAATTCCGGTCTCCC
DNA 2: TGGTGGCTACGACGGGATT
B26: GCGUUGU (DNA:RNA)
RNA: B1 RNA with C25G, A28U, A29U, C31U
DNA 1: CAATCTGAATTCCGGTCTCCC
DNA 2: TGGTGGCTACGACGGGATT
B27: GACGCAU (DNA:RNA)
RNA: B21 RNA with U25G, U26A, U27C, U28G, G29C, C30A
DNA 1: CAATCTGAATTCCGGTCTCCC
DNA 2: TGGTGGCTACGACGGGATT
B28: GACAAUC (DNA:RNA)
RNA: B1 RNA with C25G, C26A, G27C, G30U
DNA 1: CAATCTGAATTCCGGTCTCCC
DNA 2: TGGTGGCTACGACGGGATT
B29: AGAUUUG (DNA:RNA)
RNA: B21 RNA with U25A, U26G, U27A, G29U, C30U, U31G
DNA 1: CAATCTGAATTCCGGTCTCCC
DNA 2: TGGTGGCTACGACGGGATT
B30: UUGUACG (DNA:RNA)
RNA: B21 RNA with U27G, G29A, U31G
DNA 1: CAATCTGAATTCCGGTCTCCC
DNA 2: TGGTGGCTACGACGGGATT
B31: AGAGUAG (DNA:RNA)
RNA: GGGAGACCGGAAUUCAGAUUGUCCAGAGUAGUUAAAUCCCGUCGUAGCCACCA
DNA 1: CAATCTGAATTCCGGTCTCCC
DNA 2: TGGTGGCTACGACGGGATT

This assay has as its target T1, RBFOX1 RRM. As to the kind of experiment: EMSA; HiTS-Eq, 1 nM pool, 10 min; buffer printed only for the single-RNA assays: 10 mM Tris pH 7.5, 150 mM NaCl, 3.4 mM EDTA, 0.001% NP-40, 30 C. The conditions noted are these: tags: His6 N-terminal (pET28a); label: 5' 32P. Summed up:
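Purified RbFox RRM, wild type or mutant, was incubated for 10 min in 50 µL with 1 nM of a 5′-radiolabelled RNA pool carrying 7 randomized nucleotides, whose flanks were annealed to DNA oligonucleotides, over a series of increasing protein concentrations. Unbound RNA was resolved on 8% native PAGE, cut out, reverse-transcribed, barcoded by PCR and sequenced on an Illumina HiSeq 2500. Relative association constants were derived from changes in read counts for each RNA species versus the control reaction and normalised to the cognate motif.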
Background: A gel shift assay detects complexes by their altered migration in electrophoresis.
In the case of B1, the binding signal is 0.0054 KA relative to UGCAUGU.
In the case of B2, the binding signal was 0.0195 KA relative to UGCAUGU.
Take B3: the binding signal was 0.00851 KA relative to UGCAUGU.
Turning to B4, the binding signal was 0.00567 KA relative to UGCAUGU.
Regarding B5, the binding signal is 0.0252 KA relative to UGCAUGU.
The figure for B6 is 0.0085 KA relative to UGCAUGU.
Regarding B7, the binding signal is 0.0119 KA relative to UGCAUGU.
Consider B8, for which the binding signal was 0.00946 KA relative to UGCAUGU.
Regarding B9, the binding signal is 0.019 KA relative to UGCAUGU.
As to B10, the binding signal is 0.00891 KA relative to UGCAUGU.
Take B11: the binding signal was 0.0229 KA relative to UGCAUGU.
With B12, the binding signal is 0.00159 KA relative to UGCAUGU.
B13: the binding signal is 0.00814 KA relative to UGCAUGU.
Turning to B14, the binding signal was 0.0261 KA relative to UGCAUGU.
For B15, the binding signal is 0.0139 KA relative to UGCAUGU.
As for B16, the binding signal is 0.00177 KA relative to UGCAUGU.
The value for B17 was 0.0119 KA relative to UGCAUGU; that for B18 was 0.00758 KA relative to UGCAUGU.
Take B19: the binding signal was 0.00489 KA relative to UGCAUGU.
For the molecule B20, the binding signal was 0.00756 KA relative to UGCAUGU.
As to B21, the binding signal is 0.0233 KA relative to UGCAUGU.
As for B22, the binding signal is 0.0142 KA relative to UGCAUGU.
For the molecule B23, the binding signal was 0.0154 KA relative to UGCAUGU.
Consider B24, for which the binding signal is 0.00428 KA relative to UGCAUGU.
Turning to B25, the binding signal is 0.00421 KA relative to UGCAUGU.
Turning to B26, the binding signal is 0.0204 KA relative to UGCAUGU.
With B27, the binding signal was 0.0158 KA relative to UGCAUGU.
B28: the binding signal is 0.00499 KA relative to UGCAUGU.
Take B29: the binding signal is 0.0114 KA relative to UGCAUGU.
On to B30, for which the binding signal is 0.0186 KA relative to UGCAUGU.
As to B31, the binding signal was 0.0121 KA relative to UGCAUGU.
